Results published in the supplement of paper PMC4604168 (melanoma cell lines).
This is one part of the list. Many values rest on one well or one pass, so single values are uncertain.

tested on: WM451Lu; assay: cell count relative to DMSO control; melanoma cells; higher = more viable cells; settings: library dose: low library concentration; 72 h
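Note: cell number obtained by counting DAPI-stained nuclei in high-throughput microscope images with image analysis software, screen run in 1,536-well plates.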

SMILES	cell count [%]
N#CC[C@H](C1CCCC1)n1cc(-c2ncnc3[nH]ccc23)cn1 [ruxolitinib] + CCN(CC)CCNC(=O)c1c(C)[nH]c(/C=C2\C(=O)Nc3ccc(F)cc32)c1C [sunitinib] (first compound 1 µM, partner dose 0.4 µM)	124
Cc1cc(Nc2cc(N3CCN(C)CC3)nc(Sc3ccc(NC(=O)C4CC4)cc3)n2)n[nH]1 [Tozasertib] + Cn1sc(=O)n(Cc2ccccc2)c1=O [TDZD-8] (first compound 0.006 µM, partner dose 0.4 µM)	107
N#CC[C@H](C1CCCC1)n1cc(-c2ncnc3[nH]ccc23)cn1 [ruxolitinib] + CC[C@]1(O)C[C@H]2CN(CCc3c([nH]c4ccccc34)[C@@](C(=O)OC)(c3cc4c(cc3OC)N(C=O)[C@H]3[C@@](O)(C(=O)OC)[C@H](OC(C)=O)[C@]5(CC)C=CCN6CC[C@]43[C@@H]65)C2)C1 [vincristine] (first compound 1 µM, partner dose 0.0001 µM)	65.7
CC[C@]1(O)C[C@H]2CN(CCc3c([nH]c4ccccc34)[C@@](C(=O)OC)(c3cc4c(cc3OC)N(C=O)[C@H]3[C@@](O)(C(=O)OC)[C@H](OC(C)=O)[C@]5(CC)C=CCN6CC[C@]43[C@@H]65)C2)C1 [vincristine] + OCc1c[nH]c2ccccc12 [Indole-3-carbinol] (first compound 0.0001 µM, partner dose 0.8 µM)	53.6
Cc1cc(Nc2cc(N3CCN(C)CC3)nc(Sc3ccc(NC(=O)C4CC4)cc3)n2)n[nH]1 [Tozasertib] + Cc1nc(Nc2ncc(C(=O)Nc3c(C)cccc3Cl)s2)cc(N2CCN(CCO)CC2)n1 [dasatanib] (first compound 0.006 µM, partner dose 0.004 µM)	64.5
N#CC[C@H](C1CCCC1)n1cc(-c2ncnc3[nH]ccc23)cn1 [ruxolitinib] + O=C(O)[C@@H]1[O][Sb](=[O])([O][Sb]2(=[O])[O][C@H]([C@H](O)CO)[C@H](O)[C@H](C(=O)O)[O]2)[O][C@H]([C@H](O)CO)[C@@H]1O [stibogluconate] (first compound 1 µM, partner dose 2 µM)	67.5
CC[C@]1(O)C[C@H]2CN(CCc3c([nH]c4ccccc34)[C@@](C(=O)OC)(c3cc4c(cc3OC)N(C=O)[C@H]3[C@@](O)(C(=O)OC)[C@H](OC(C)=O)[C@]5(CC)C=CCN6CC[C@]43[C@@H]65)C2)C1 [vincristine] + O=C(/C=C/c1cccnc1)NCCCCC1CCN(C(=O)c2ccccc2)CC1 [FK866] (first compound 0.0001 µM, partner dose 0.01 µM)	50.2
N#CC[C@H](C1CCCC1)n1cc(-c2ncnc3[nH]ccc23)cn1 [ruxolitinib] + COc1ccc(-c2ccc3c(N4CCOCC4)nc(N4C[C@@H](C)O[C@@H](C)C4)nc3n2)cc1CO [KU0063794] (first compound 1 µM, partner dose 0.02 µM)	96.3
CC[C@]1(O)C[C@H]2CN(CCc3c([nH]c4ccccc34)[C@@](C(=O)OC)(c3cc4c(cc3OC)N(C=O)[C@H]3[C@@](O)(C(=O)OC)[C@H](OC(C)=O)[C@]5(CC)C=CCN6CC[C@]43[C@@H]65)C2)C1 [vincristine] + Nc1ccn([C@@H]2O[C@H](CO)[C@@H](O)C2(F)F)c(=O)n1 [gemcitabine] (first compound 0.0001 µM, partner dose 0.0004 µM)	58.4
Cc1cc(Nc2cc(N3CCN(C)CC3)nc(Sc3ccc(NC(=O)C4CC4)cc3)n2)n[nH]1 [Tozasertib] + O=S(=O)(c1ccccc1)N(CC(F)(F)F)c1ccc(C(O)(C(F)(F)F)C(F)(F)F)cc1 [T0901317] (first compound 0.006 µM, partner dose 1.4 µM)	72.5
CC[C@]1(O)C[C@H]2CN(CCc3c([nH]c4ccccc34)[C@@](C(=O)OC)(c3cc4c(cc3OC)N(C=O)[C@H]3[C@@](O)(C(=O)OC)[C@H](OC(C)=O)[C@]5(CC)C=CCN6CC[C@]43[C@@H]65)C2)C1 [vincristine] + COc1cc2c(Oc3ccc4[nH]c(C)cc4c3F)ncnc2cc1OCCCN1CCCC1 [cediranib] (first compound 0.0001 µM, partner dose 0.4 µM)	107
CC[C@]1(O)C[C@H]2CN(CCc3c([nH]c4ccccc34)[C@@](C(=O)OC)(c3cc4c(cc3OC)N(C=O)[C@H]3[C@@](O)(C(=O)OC)[C@H](OC(C)=O)[C@]5(CC)C=CCN6CC[C@]43[C@@H]65)C2)C1 [vincristine] + CCCCCCCCc1ccc(CCC(N)(CO)CO)cc1 [fingolimod] (first compound 0.0001 µM, partner dose 2 µM)	64.6
Cc1cc(Nc2cc(N3CCN(C)CC3)nc(Sc3ccc(NC(=O)C4CC4)cc3)n2)n[nH]1 [Tozasertib] + CCc1ccc(CCOc2ccc(CC3SC(=O)NC3=O)cc2)nc1 [pioglitazone] (first compound 0.006 µM, partner dose 2 µM)	91.7
CC[C@]1(O)C[C@H]2CN(CCc3c([nH]c4ccccc34)[C@@](C(=O)OC)(c3cc4c(cc3OC)N(C=O)[C@H]3[C@@](O)(C(=O)OC)[C@H](OC(C)=O)[C@]5(CC)C=CCN6CC[C@]43[C@@H]65)C2)C1 [vincristine] + COc1cc2ncnc(Nc3ccc(Oc4ccccc4)cc3)c2cc1OC [SrcI1] (first compound 0.0001 µM, partner dose 2 µM)	32.6
N#CC[C@H](C1CCCC1)n1cc(-c2ncnc3[nH]ccc23)cn1 [ruxolitinib] + O=C(/C=C/c1cccnc1)NCCCCC1CCN(C(=O)c2ccccc2)CC1 [FK866] (first compound 1 µM, partner dose 0.01 µM)	112
Cc1cc(Nc2cc(N3CCN(C)CC3)nc(Sc3ccc(NC(=O)C4CC4)cc3)n2)n[nH]1 [Tozasertib] + Cc1cc(Nc2cc(N3CCN(C)CC3)nc(/C=C/c3ccccc3)n2)n[nH]1 [ENMD2076] (first compound 0.006 µM, partner dose 0.04 µM)	97.6
Cc1cc(Nc2cc(N3CCN(C)CC3)nc(Sc3ccc(NC(=O)C4CC4)cc3)n2)n[nH]1 [Tozasertib] + O=c1[nH]nc(Sc2ncc([N+](=O)[O-])s2)n1-c1ccc2c(c1)OCCO2 [BI78D3] (first compound 0.006 µM, partner dose 0.2 µM)	103
N#CC[C@H](C1CCCC1)n1cc(-c2ncnc3[nH]ccc23)cn1 [ruxolitinib] + CN(NC(=O)CC(=O)NN(C)C(=S)c1ccccc1)C(=S)c1ccccc1 [STA4783] (first compound 1 µM, partner dose 0.006 µM)	100
CC[C@]1(O)C[C@H]2CN(CCc3c([nH]c4ccccc34)[C@@](C(=O)OC)(c3cc4c(cc3OC)N(C=O)[C@H]3[C@@](O)(C(=O)OC)[C@H](OC(C)=O)[C@]5(CC)C=CCN6CC[C@]43[C@@H]65)C2)C1 [vincristine] + COC(=O)c1sccc1S(=O)(=O)Nc1ccc(Nc2ccccc2)cc1OC [GSK0660] (first compound 0.0001 µM, partner dose 1 µM)	58.7
Cc1cc(Nc2cc(N3CCN(C)CC3)nc(Sc3ccc(NC(=O)C4CC4)cc3)n2)n[nH]1 [Tozasertib] + CC(C)CCN1c2nc(Nc3cc(F)c(O)c(F)c3)ncc2N(C)C(=O)C1C [BID1870] (first compound 0.006 µM, partner dose 0.2 µM)	96.9
Cc1cc(Nc2cc(N3CCN(C)CC3)nc(Sc3ccc(NC(=O)C4CC4)cc3)n2)n[nH]1 [Tozasertib] + Cc1cn(-c2cc(NC(=O)c3ccc(C)c(Nc4nccc(-c5cccnc5)n4)c3)cc(C(F)(F)F)c2)cn1 [nilotinib] (first compound 0.006 µM, partner dose 0.2 µM)	107
N#CC[C@H](C1CCCC1)n1cc(-c2ncnc3[nH]ccc23)cn1 [ruxolitinib] + O=C(Nc1ccccc1)c1cc([N+](=O)[O-])ccc1Cl [GW9662] (first compound 1 µM, partner dose 2 µM)	95.8
CC[C@]1(O)C[C@H]2CN(CCc3c([nH]c4ccccc34)[C@@](C(=O)OC)(c3cc4c(cc3OC)N(C=O)[C@H]3[C@@](O)(C(=O)OC)[C@H](OC(C)=O)[C@]5(CC)C=CCN6CC[C@]43[C@@H]65)C2)C1 [vincristine] + CC(C)CCN1c2nc(Nc3cc(F)c(O)c(F)c3)ncc2N(C)C(=O)C1C [BID1870] (first compound 0.0001 µM, partner dose 0.2 µM)	41.2
Cc1cc(Nc2cc(N3CCN(C)CC3)nc(Sc3ccc(NC(=O)C4CC4)cc3)n2)n[nH]1 [Tozasertib] + CCCCCCCCCCCCCCCCCCOP(=O)([O-])OC1CC[N+](C)(C)CC1 [Perifosine] (first compound 0.006 µM, partner dose 0.4 µM)	101
Cc1cc(Nc2cc(N3CCN(C)CC3)nc(Sc3ccc(NC(=O)C4CC4)cc3)n2)n[nH]1 [Tozasertib] + Cc1cc(N2CCOCC2)cc2[nH]c(-c3c(NC[C@@H](O)c4cccc(Cl)c4)cc[nH]c3=O)nc12 [BMS536924] (first compound 0.006 µM, partner dose 0.2 µM)	94.8
CC[C@]1(O)C[C@H]2CN(CCc3c([nH]c4ccccc34)[C@@](C(=O)OC)(c3cc4c(cc3OC)N(C=O)[C@H]3[C@@](O)(C(=O)OC)[C@H](OC(C)=O)[C@]5(CC)C=CCN6CC[C@]43[C@@H]65)C2)C1 [vincristine] + O=C(O)c1ccc2c(c1)nc(Nc1cccc(Cl)c1)c1ccncc12 [CX4945] (first compound 0.0001 µM, partner dose 0.4 µM)	65.2
